The campaign covered roughly 220,000 compounds. About 5,700 (2.6%) were called active. Inconclusive results (about 18%) are left out. The call rests on the fitted dose curve; in most records, active means well fitted inhibition curve with a large enough effect; inconclusive means small, poorly fitted or top-dose-only effect; inactive means no such curve, though single readings can be large or run the other way. More than one record can exist for a structure, and the calls need not agree. Not every entry of the source has a single result; some have several. The list is limited to them. The source may hold further records. The records of an entry are repeats (runs, samples, wells, individuals or studies). Records carry a tag for their origin. The letters are not those of the source and start again with each entry.
target: Lysine-specific demethylase 5B (Homo sapiens) (UniProt Q9UGL1); assay: Primary screen for KDM5B Histone Demethylases FDH-coupled qHTS; conditions: FDH-coupled NADH fluorescence (FDH is formaldehyde dehydrogenase); series mostly up to 57.7 µM; further: nearly all actives have a fitted effect of over 70% in size
Source text: Assay Submitter (PI): Qin Yan, Ph.D. (Yale University) and Xiaodong Cheng, Ph.D. (MD Anderson) This project was funded as part of the NCI NEXT Program and Chemical Biology Consortium (CBC) The histone demethylases, KDM5A and KDM5B catalyze the demethylation of lysine 4 on histone H3 (H3K4me3/2). They are overexpressed in a variety of cancers and have been implicated in cancer cell growth, metastasis, drug resistance, and tumor growth. KDM5A is amplified and overexpressed in breast and gastric cancer; and is translocated in leukemia. While KDM5B is highly expressed in human mammary tumors and breast cancer cell lines, but not in normal adult breast tissue. […]
Materials: 1536-well Black, solid bottom, medium binding assay plate is purchased from Greiner Bio-one. […] The assay plate is incubated for 10 min at room temperature followed by addition of 1uL substrate mix (buffer + 100uM ascorbic acid, 50uM ferrous ammonium sulfate, 12.5uM H3K4Me3, 25uM a-ketoglutarate, 0.25 mM NAD+, 0.25 U/mL formaldehyde dehydrogenase using the FRD yielding a total reaction volume of 4 uL. Initial fluorescence (Read1) is detected using the PerkinElmer ViewLux plate reader equipped with 340 nm excitation and 450 nm emission filters. The final fluorescence (Read2) signal is obtained after 30 min of room temperature incubation. Delta RFU is calculated (Read2 - Read1) and is used to generated dose response curves.
Potency means the concentration at half of the fitted maximal effect.

Sequence of UniProt Q9UGL1 (Q9UGL1 whole entry, looked up): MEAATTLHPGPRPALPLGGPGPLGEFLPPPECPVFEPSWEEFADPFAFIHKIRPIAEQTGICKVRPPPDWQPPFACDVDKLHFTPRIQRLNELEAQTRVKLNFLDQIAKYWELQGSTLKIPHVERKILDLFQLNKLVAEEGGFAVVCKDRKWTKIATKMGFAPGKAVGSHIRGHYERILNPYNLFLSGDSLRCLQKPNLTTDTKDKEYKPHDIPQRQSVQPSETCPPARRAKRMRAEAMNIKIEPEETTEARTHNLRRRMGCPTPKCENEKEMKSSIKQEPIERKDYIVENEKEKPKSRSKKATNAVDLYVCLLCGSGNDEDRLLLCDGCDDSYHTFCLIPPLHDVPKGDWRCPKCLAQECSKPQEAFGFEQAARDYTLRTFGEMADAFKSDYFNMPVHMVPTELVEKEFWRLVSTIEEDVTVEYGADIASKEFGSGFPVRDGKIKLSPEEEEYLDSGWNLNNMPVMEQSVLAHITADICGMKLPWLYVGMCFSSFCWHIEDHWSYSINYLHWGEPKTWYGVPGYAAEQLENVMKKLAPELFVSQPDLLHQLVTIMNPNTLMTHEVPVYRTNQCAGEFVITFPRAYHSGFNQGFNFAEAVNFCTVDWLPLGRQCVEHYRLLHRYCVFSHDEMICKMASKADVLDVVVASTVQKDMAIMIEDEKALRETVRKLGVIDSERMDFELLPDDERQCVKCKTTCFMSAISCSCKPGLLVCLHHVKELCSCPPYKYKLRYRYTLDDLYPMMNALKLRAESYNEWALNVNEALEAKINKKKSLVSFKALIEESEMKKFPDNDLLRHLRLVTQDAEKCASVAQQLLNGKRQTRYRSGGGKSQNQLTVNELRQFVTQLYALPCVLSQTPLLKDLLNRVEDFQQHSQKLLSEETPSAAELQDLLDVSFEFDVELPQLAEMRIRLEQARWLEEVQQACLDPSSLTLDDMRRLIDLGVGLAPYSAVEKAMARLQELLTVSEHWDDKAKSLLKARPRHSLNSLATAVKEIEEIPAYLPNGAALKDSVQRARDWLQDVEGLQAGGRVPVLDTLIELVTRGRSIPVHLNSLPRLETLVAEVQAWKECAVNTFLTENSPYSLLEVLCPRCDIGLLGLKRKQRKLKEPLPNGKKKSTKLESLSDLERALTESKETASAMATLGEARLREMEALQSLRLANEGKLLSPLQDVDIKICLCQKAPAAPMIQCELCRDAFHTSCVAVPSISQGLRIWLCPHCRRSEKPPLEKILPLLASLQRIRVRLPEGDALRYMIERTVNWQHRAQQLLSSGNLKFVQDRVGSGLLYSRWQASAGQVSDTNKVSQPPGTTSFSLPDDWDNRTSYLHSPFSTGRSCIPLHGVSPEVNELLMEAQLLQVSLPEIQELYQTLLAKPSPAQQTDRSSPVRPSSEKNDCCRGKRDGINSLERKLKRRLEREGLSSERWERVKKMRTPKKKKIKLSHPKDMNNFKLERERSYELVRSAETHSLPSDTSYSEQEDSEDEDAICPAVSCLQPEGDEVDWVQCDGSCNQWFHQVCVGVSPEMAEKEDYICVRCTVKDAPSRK

Compound | Potency
COc1ccc(-c2nc3ccncc3[nH]2)cc1 | active: 126 µM [sample A] and inactive [sample B]
COCCNC(=O)c1nc(-c2cc(Cl)cc(Cl)c2)c2ccccn12 | inactive [sample A] and active: 25.1 µM [sample B]

From PubChem BioAssay AID1347165 (National Center for Advancing Translational Sciences (NCATS), 2019)
